For 19 variants, self-cleavage results are on record in the RNAGym collection of RNA variant scans (doi:10.7554/elife.90254).

First the molecules themselves.
B1: LINE1-full (parent)
chain: UACGUAGGUGGUUUUCCCCUGAUAGUGCUAAGGGGGCCUGGAAGUUUGGACUGGGCAGAGCUCAACACAGCGUGGCAAAGUGGCUGUGGCUAGACUGCCUCUCUGGAUUCCUCGUCACUCAGCAGGGCAUCUCUGAGAGAAAUGCC

Read counts are not given, so values of variants with three or more changes are uncertain.

This series covers variants of B1. The experiment in a line: self-cleavage, relative activity (ratio to wild type); higher = more cleavage; in vitro, sequencing; the parent is a self-cleaving ribozyme.
For the variant UACGUAGGUGGUUUUCCCCUGAUAGUGCUAAGGGGGCCUGGAGGUUUGGACUGGGCAGAGCUCAACACAGCGUGGCAAAGUGGCUGUGGCUAGACUGCCACUCUGGGUUCCUCGUCACUCAGCAGGGCAUCUCUGAGAGGGAUGCC [A43G U100A A107G A140G A141G], the self-cleavage was determined as 0. The same measure for UACGUAGGUGGUUUUCCCCUGAUAGUGCUAAGGGGGCCUGGAGGUUUGGACUGGGCAGAGCUCAACACAGCGUGGCAAAGUGGCUGUGGCUAGACUGCCCCUCUGGAUUCCUCGUCGCUCAGCAGGGCAUCUCUGAGAGAAAUGCC [A43G U100C A117G]: 1.15. The same measure for UACGUAGGUGGUUUUCCCCUGAUAGUGCUAAGGGGGCCUGGAGGUUUGGACAGGGCAGAGCUCAACACAGCGUGGCAAAGUGGCUGUGGCUGGACUGCCUCUCGGGAUUCCUCGUCACUCAGCAGGGCAUCUCUGAGAGAAACGCC [A43G U52A A92G U104G U143C]: 0; for UACGUAGGUGGUUUUCCCCUGAUAGUGCUAAGGGGGCCUGGAGGUUUGGACUGGGCAGAGCUCAACACAGCGUGGCAAAGUGGCUGAGGUUAGACUGCCUCUCUGGAUUCCUCGUCACUCAGCAGGGCAUCUCAGAGAGGAAUGCC [A43G U87A C90U U134A A140G]: 0; for UACGUAGGUGGUUUUCCCCUGAUAGUGCUAAGGGGGCCUGGAGGUUUGGACUGGGCAGAGCCCAACACUGCGUGGCAAAGUGGCUGUGGCUAGACAGCCUCUCUGGAUCCCUCGUCACUCAGCAGGGCAUCUCUGAGAGAAACGCC [A43G U62C A69U U96A U109C U143C]: 0. Next, UACGUAGGUGGUUUUCCCCUGAUAGUGCUAAGGGGGCCUGGAGGUUUGGACCGGGCAGAGCUCAACACAGCGUGGCAGAGUGGCUGUGGCUAGACUGCCUCUCUGGAUUCCUCGUCACUCAGCAGGGCAUCUCUGAGAGAAAUGCC [A43G U52C A78G]: 0.9; UACGUAGGUGGUUUUCCCCUGAUAGUGCUAAGGGGGCCUGGAGGUUUGGACUGGGCAGAGCUCAACACAGCGUGGCAAAGUGGCUGUGGCUAGACAGCCUCUCUGGAUUCCUCGUCACUCAGCAGGGCAUCUCUGAGGGAAGUGCC [A43G U96A A138G A142G]: 0; UACGUAGGUGGUUUUCCCCUGAUAGUGCUAAGGGGGCCUGGAGGUUUGGACUGGGCAGAGCUCAACACAGCGUGGCAAAGUGGCCGUGGCUUGACUGCCUCUCUGGAUUCCUCGUCACUCAGCAGGGCAUCUCUGGGAGAAAUGCC [A43G U85C A92U A136G]: 0. With UACGUAGGUGGUUUUCCCCUGAUAGUGCUAAGGGGGCCUGGAGGUUUGGACUGGGCAGAGCUCAACACAGCGUGGCAAAGUGGCUGAAGCUAGACUGCCUCUCUGGAUUCCUCGUCACUCAGCAGGGCAUCGCAGAGAGAAAUGCC [A43G U87A G88A U132G U134A], the self-cleavage came to 0. Next, UACGUAGGUGGUUUUCCCCUGAUAGUGCUAAGGGGGCCUGGAGGUUUGGACUGGGCAGAGCUCAACACAGCGUGGCAAAGUGGCAGUGGCUAGACUGCCUCUCUGGAUUCCUCGUCACUCAGCAGGGCAUCUCCGAGAGAAAUGCC [A43G U85A U134C]: 0.12. Next, UACGUAGGUGGUUUUCCCCUGAUAGUGCUAAGGGGGCCUGGAGGUUUGGACUGGGCAGAGCUCAACACAGCGUGGCAAAGUGGCAGUAGCUAGACUGCCUCUCUGGAUUCCUCGUCACUCAGCAGGGCAUCUCUGAGAGAAAUGCC [A43G U85A G88A]: 0.05; UACGUAGGUGGUUUUCCCCUGAUAGUGCUAAGGGGGCCUGGAGGUAUGAUCUGGGCAGAGCUCAACACAGCGUGGCAAAGUGGCUGUGGCUAGACUGCCUCUCUGGAUUCCUCGUCACUCAGCGGGGCAUCCCUGAGAGAAAUGCC [A43G U46A G49A A50U A124G U132C]: 0.31.

For UACGUAGGUGGUUUUCCCCUGAUAGUGCUAAGGGGGCCUGGAGGUUUGGACUGGGCAGAGCUCAACACAGCGUGGCAAAGUGGCUGUGGCUAGACUGCCUCUCUGGAUUCCUCGUCACCCAGCAGGGCAUCUCAGAGAGAAAUGCC [A43G U119C U134A], the self-cleavage amounted to 1.51. Next, UACGUAGGUGGUUUUCCCCUGAUAGUGCUAAGGGGGCCUGGAGGUUUGGACUGGGCAGAGCUCAACACAGCGUGGCAAAGUGGCUGUGGCUAGACUGCCUCUCCGGAUCCCUCGUCACUCUGCAGGGCAUCUCAGAGAGAAAUGCC [A43G U104C U109C A121U U134A]: 1.15.

Regarding UACGUAGGUGGUUUUCCCCUGAUAGUGCUAAGGGGGCCUGGAGGUUUGGACUGGGCAGAGCUCAACACAGCGUGGCAAAGUGGCUGUGGCUAGACUGCCUCUCUGGAUUCCUCGUCACUCAGCAGGGCAACUCUGAGGGAAAUGCC [A43G U130A A138G], the self-cleavage is 1.53. The same measure for UACGUAGGUGGUUUUCCCCUGAUAGUGCUAAGGGGGCCUGGAGGUUCGGACUGGGCAGAGCUCAACACAGCGUGGCAAAGUGGCUGUGGCUAGACUGCCUCUCUGGACUCCUCGUCACUCAGCAGGGCAUCUCUGAGAGAAAUGCC [A43G U47C U108C]: 0. The same measure for UACGUAGGUGGUUUUCCCCUGAUAGUGCUAAGGGGGCCUGGAGGUUUGGACUGGGCAGAGCUCAACACAGCGAGGCAAAGUGGCUGUGGCUAGUCUGCCUCUCAGGAUUCCUCGUCACUCAGCAGGGCAUCUCUGAGAGAAAUGCC [A43G U73A A94U U104A]: 0.22. Next, UACGUAGGUGGUUUUCCCCUGAUAGUGCUAAGGGGGCCUGGAGGUUUGGACUGGGCAGAGCUCAACACAGCGUGGCAAAGUGGCUGUGGCUAGACUGCCUCUCUGGACUCCUCGUCACUCAGCAGGGCAUCUCUGAGAGAGAUGCC [A43G U108C A141G]: 3; UACGUAGGUGGUUUUCCCCUGAUAGUGCUAAGGGGGCCUGGAGGUUUGGACCGGGCAGAGCUCUACACAGCGUGGCAAAGUGGCUGUGGCUAGACUGCCUCUCUGGAUUCCUCGUCACUCAGCAGGGCAUCUCUGAGAGAAAUGCC [A43G U52C A64U]: 0.65.
